Test results: patent US7595299B2, “Peptides as NS3-serine protease inhibitors of hepatitis C virus” (priority 2000, dated 2009)
Starred links: 1 amine or outer side, 2 acyl side, 3 side chain; linkers in the order of their positions; H or OH if unused. Non-standard residues stand in square brackets, D forms with d. Residues, ends and D or L forms follow the SMILES beside them. ξ: configuration not given here. *: point of attachment. ξβ3hAbu(2-oxo,5,5,5-F3) = O=C(C(=O)[*:2])C(CC(F)(F)F)N[*:1]; Phe(3,4,5-F3) = N[C@@H](Cc1cc(F)c(F)c(F)c1)C(=O)O; Phe(3-CF3) = N[C@@H](Cc1cccc(C(F)(F)F)c1)C(=O)O; Phe(F5) = N[C@@H](Cc1c(F)c(F)c(F)c(F)c1F)C(=O)O; Phe(4-Br) = N[C@@H](Cc1ccc(Br)cc1)C(=O)O; 2Nal = N[C@@H](Cc1ccc2ccccc2c1)C(=O)O; Isobutyloxycarbonyl = CC(C)COC(=O)*; X13 = CCCCCC12CCC(OC(=O)*)(CC1)CC2; X8 = O=C(OCC12CC3CC(CC(C3)C1)C2)*; X4 = CCCC(N[*:1])C(=O)C(=O)[*:2]; hPhe = N[C@@H](CCc1ccccc1)C(=O)O; X37 = COC(=O)c1ccc(OC(=O)*)cc1; Chg = N[C@H](C(=O)O)C1CCCCC1; Phg = N[C@H](C(=O)O)c1ccccc1; X21 = CC1C2CCC(C2)C1COC(=O)*; ξPhg = NC(C(=O)O)c1ccccc1; Boc = CC(C)(C)OC(=O)*

Target: Recombinant heterodimeric HCV NS3/NS4A protease (strain 1a) (Hepatitis C virus genotype 1a, UniProt P27958)
Assay: biochemical
Conditions: not given
Description: Spectrophotometric Assay: Spectrophotometric assay for the HCV serine protease was performed on the inventive compounds by following the procedure described by R. Zhang et al, Analytical Biochemistry, 270 (1999) 268-275, the disclosure of which is incorporated herein by reference. The assay based on the proteolysis of chromogenic ester substrates is suitable for the continuous monitoring of HCV NS3 protease activity. The substrates were derived from the P side of the NS5A-NS5B junction sequence (Ac-DTEDVVX(Nva), where X=A or P) whose C-terminal carboxyl groups were esterified with one of four different chromophoric alcohols (3- or 4-nitrophenol, 7-hydroxy-4-methyl-coumarin, or 4-phenylazophenol). […] Materials and Methods:
Materials: Chemical reagents for assay related buffers were obtained from Sigma Chemical Company (St. Louis, Mo.). Reagents for peptide synthesis were from Aldrich Chemicals, Novabiochem (San Diego, Calif.), Applied Biosystems (Foster City, Calif.) and Perseptive Biosystems (Framingham, Mass.). Peptides were synthesized manually or on an automated ABI model 431A synthesizer (from Applied Biosystems). UV/VIS Spectrometer model LAMBDA 12 was from Perkin Elmer (Norwalk, Conn.) and 96-well UV plates were obtained from Corning (Corning, N.Y.). The prewarming block was from USA Scientific (Ocala, Fla.) and the 96-well plate vortexer was from Labline Instruments (Melrose Park, Ill.). A Spectramax Plus microtiter plate reader with monochrometer was obtained from Molecular Devices (Sunnyvale, Calif.).
Protein concentrations were determined by the Biorad dye method using recombinant HCV protease standards previously quantified by amino acid analysis. Prior to assay initiation, the enzyme storage buffer (50 mM sodium phosphate pH 8.0, 300 mM NaCl, 10% glycerol, 0.05% lauryl maltoside and 10 mM DTT) was exchanged for the assay buffer (25 mM MOPS pH 6.5, 300 mM NaCl, 10% glycerol, 0.05% lauryl maltoside, 5 μM EDTA and 5 μM DTT) utilizing a Biorad Bio-Spin P-6 prepacked column.
Substrate Synthesis and Purification: The synthesis of the substrates was done as reported by R. Zhang et al, (ibid.) and was initiated by anchoring Fmoc-Nva-OH to 2-chlorotrityl chloride resin using a standard protocol (K. Barlos et al, Int. J. Pept. Protein Res., 37 (1991), 513-520). The peptides were subsequently assembled, using Fmoc chemistry, either manually or on an automatic ABI model 431 peptide synthesizer. […] The combined filtrate and DCM wash was evaporated azeotropically (or repeatedly extracted by aqueous Na2CO3 solution) to remove the acid used in cleavage. The DCM phase was dried over Na2SO4 and evaporated.
The ester substrates were assembled using standard acid-alcohol coupling procedures (K. Holmber et al, Acta Chem. Scand., B33 (1979) 410-412). Peptide fragments were dissolved in anhydrous pyridine (30-60 mg/ml) to which 10 molar equivalents of chromophore and a catalytic amount (0.1 eq.) of para-toluenesulfonic acid (pTSA) were added. Dicyclohexylcarbodiimide (DCC, 3 eq.) was added to initiate the coupling reactions. […] Pyridine solvent was evaporated under vacuum and further removed by azeotropic evaporation with toluene. The peptide ester was deprotected with 95% TFA in DCM for two hours and extracted three times with anhydrous ethyl ether to remove excess chromophore. The deprotected substrate was purified by reversed phase HPLC on a C3 or C8 column with a 30% to 60% acetonitrile gradient (using six column volumes).

| Structure (SMILES) | Ki [nM] |
| --- | --- |
| CCCC(NC(=O)[C@H](CC(C)C)NC(=O)[C@@H](NC(=O)OCC(C)C)C1CCCCC1)C(=O)C(=O)NCC(=O)N[C@H](C(=O)O)c1ccccc1 (stereo partly shown) (Isobutyloxycarbonyl-[Chg]L[X4]G[Phg]-OH) | 101 to 1000 |
| CCCC(NC(=O)[C@H](CC(C)C)NC(=O)[C@@H](NC(=O)Oc1ccc(C(=O)OC)cc1)C1CCCCC1)C(=O)C(=O)NCC(=O)N[C@H](C(=O)O)c1ccccc1 (stereo partly shown) (X37-[Chg]L[X4]G[Phg]-OH) | 101 to 1000 |
| CCCC(NC(=O)[C@H](Cc1cccc(C(F)(F)F)c1)NC(=O)[C@@H](NC(=O)OC(C)(C)C)C1CCCCC1)C(=O)C(=O)NCC(=O)NC(C(N)=O)c1ccccc1 (stereo partly shown) [Example 12] (Boc-[Chg][Phe(3-CF3)][X4]G[ξPhg]-NH2) | > 1000 |

Same assay, conditions: HCV protease continuous assay, Table 1; read-out: Ki* Range

| Structure (SMILES) | Ki [nM] |
| --- | --- |
| CCCCCC12CCC(OC(=O)N[C@H](C(=O)N[C@@H](CC(C)C)C(=O)NC(CCC)C(=O)C(=O)NCC(=O)N[C@H](C(N)=O)c3ccccc3)C3CCCCC3)(CC1)CC2 (stereo partly shown) [Example 1] (X13-[Chg]L[X4]G[Phg]-NH2) | > 1000 |
| CCCC(NC(=O)[C@H](CC(C)C)NC(=O)[C@@H](NC(=O)OCC1C2CCC(C2)C1C)C1CCCCC1)C(=O)C(=O)NCC(=O)N[C@H](C(N)=O)c1ccccc1 (stereo partly shown) [Example 2] (X21-[Chg]L[X4]G[Phg]-NH2) | 101 to 1000 |
| CCCC(NC(=O)[C@H](CC(C)C)NC(=O)[C@@H](NC(=O)OCC12CC3CC(CC(C3)C1)C2)C1CCCCC1)C(=O)C(=O)NCC(=O)N[C@H](C(N)=O)c1ccccc1 (stereo partly shown) [Example 3] (X8-[Chg]L[X4]G[Phg]-NH2) | > 1000 |
| CCCC(NC(=O)[C@H](CCc1ccccc1)NC(=O)[C@@H](NC(=O)OC(C)(C)C)C1CCCCC1)C(=O)C(=O)NCC(=O)N[C@H](C(N)=O)c1ccccc1 (stereo partly shown) [Example 4] (Boc-[Chg][hPhe][X4]G[Phg]-NH2) | > 1000 |
| CCCC(NC(=O)[C@H](CC(C)C)NC(=O)[C@@H](NC(=O)OC(C)(C)C)C1CCCCC1)C(=O)C(=O)NCC(=O)N[C@H](C(N)=O)c1ccccc1 (stereo partly shown) [Example 5] (Boc-[Chg]L[X4]G[Phg]-NH2) | 101 to 1000 |
| CCCC(NC(=O)[C@H](Cc1ccc(Br)cc1)NC(=O)[C@@H](NC(=O)OC(C)(C)C)C1CCCCC1)C(=O)C(=O)NCC(=O)NC(C(N)=O)c1ccccc1 (stereo partly shown) [Example 6] (Boc-[Chg][Phe(4-Br)][X4]G[ξPhg]-NH2) | > 1000 |
| CCCC(NC(=O)[C@H](Cc1c(F)c(F)c(F)c(F)c1F)NC(=O)[C@@H](NC(=O)OC(C)(C)C)C1CCCCC1)C(=O)C(=O)NCC(=O)NC(C(N)=O)c1ccccc1 (stereo partly shown) [Example 7] (Boc-[Chg][Phe(F5)][X4]G[ξPhg]-NH2) | > 1000 |
| CCCC(NC(=O)C(CCN1C(=O)c2ccccc2C1=O)NC(=O)C(NC(=O)OC(C)(C)C)C1CCCCC1)C(=O)C(=O)NCC(=O)N[C@H](C(N)=O)c1ccccc1 (stereo partly shown) [Example 8] | > 1000 |
| CCCC(NC(=O)[C@H](Cc1ccc2ccccc2c1)NC(=O)[C@@H](NC(=O)OC(C)(C)C)C1CCCCC1)C(=O)C(=O)NCC(=O)NC(C(N)=O)c1ccccc1 (stereo partly shown) [Example 9] (Boc-[Chg][2Nal][X4]G[ξPhg]-NH2) | > 1000 |
| CCCC(NC(=O)[C@H](Cc1cc(F)c(F)c(F)c1)NC(=O)[C@@H](NC(=O)OC(C)(C)C)C1CCCCC1)C(=O)C(=O)NCC(=O)NC(C(N)=O)c1ccccc1 (stereo partly shown) [Example 10] (Boc-[Chg][Phe(3,4,5-F3)][X4]G[ξPhg]-NH2) | > 1000 |
| CCCC(NC(=O)[C@H](CC(C)C)NC(=O)[C@@H](NC(=O)OC(C)(C)C)C1CCCCC1)C(=O)C(=O)NCC(=O)N[C@H](C(=O)O)c1ccccc1 (stereo partly shown) [Example 11] (Boc-[Chg]L[X4]G[Phg]-OH) | < 100 |
| CCCC(NC(=O)[C@H](Cc1cccc2c1CCCC2)NC(=O)[C@@H](NC(=O)OC(C)(C)C)C1CCCCC1)C(=O)C(=O)NCC(=O)N[C@H](C(=O)O)c1ccccc1 (stereo partly shown) [Example 13] | 101 to 1000 |
| CC(C)COC(=O)N[C@H](C(=O)N[C@@H](CC(C)C)C(=O)NC(CC(F)(F)F)C(=O)C(=O)NCC(=O)N[C@H](C(N)=O)c1ccccc1)C1CCCCC1 (stereo partly drawn) [Example 14] (Isobutyloxycarbonyl-[Chg]L[ξβ3hAbu(2-oxo,5,5,5-F3)]G[Phg]-NH2) | > 1000 |
